PubChem BioAssay AID686978 (National Center for Advancing Translational Sciences (NCATS), 2013)
Several values for one entry are separate records, joined by “and”; a condition that tells them apart may be missing. Identical values can stand only once. In all, about 420,000 compounds went through this assay and about 64,000 (15%) were called active. Inconclusive means that the source gave no clear call. Such entries were picked first, then a sample of the others. Calls follow the shape of the dose curve; as a rule, active = well fitted inhibition curve with a large enough effect; inconclusive = small, poorly fitted or top-dose-only effect; inactive = flat fitted curve, though single readings scatter. Potencies of inconclusive entries are left out as doubtful fits. Where a structure was tested more than once in an assay, its records may differ in their call.

Test: qHTS for Inhibitors of human tyrosyl-DNA phosphodiesterase 1 (TDP1): qHTS in cells in absence of CPT; also: nearly all actives have a fitted effect of over 55% in size
Details: DT40 Tdp1-/- hTDP1 cells, no CPT, ATP luminescence, 48 h; activity change, negative = growth inhibition: at 46.2 µM (top of the series)
Method in brief: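 Seeded 400 DT40-hTDP1 cells/well (vehicle DMSO, no 20 nM CPT); pinned compounds; ≥48 hr at 37 °C; CellTiter-Glo luminescence as viability measure.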
% is scaled to controls: 0 for no effect and ±100 for the full control effect; potency is read from the fitted curve at half-maximal effect; tags tell the direction and shape of the fitted curve.

SMILES | Potency | activity change, negative = growth inhibition
Nc1ccn(C2OC(CO)C(O)C2O)c(=O)n1 (centres undefined) | inactive and active: 11.6 nM | 
Cc1cccc(-n2ncc(C(=O)N3CCN(C(=O)c4ccco4)CC3)c2C2CCN(C(=O)OC(C)(C)C)CC2)c1 | inconclusive [inhibitor, single point] | 
Cc1ccccc1-c1cncnc1NCc1cccnc1 | inactive | 
CC(C)Sc1nc(N2CCOCC2)c2c3c(sc2n1)COC(C)(C)C3 | inconclusive [inhibitor, single point] | 
COc1cccc([C@@H]2Nc3ccc(C(=O)O)cc3[C@@H]3C=CC[C@@H]32)c1OC | inactive | 
N#CC1(NC(=O)Cn2ncc(Cl)c(Cl)c2=O)CCCCC1 | active: 7.31 µM | 
O=C(Cc1cccc(NC(=O)C2CCCN(C(=O)CCc3ccccc3)C2)c1)Nc1ccc(C(=O)N2CCOCC2)cc1 (centres undefined) | inconclusive [inhibitor, single point] | 
COc1cccc(OC)c1C(=O)NCC12CC3CC(C1)CC(CNC(=O)c1c(OC)cccc1OC)(C3)C2 | inactive | 
Cc1ccc2c(c1)c(=O)c(C(=O)c1ccncc1)cn2CC(=O)Nc1ccc(C(C)C)cc1 | inactive | 
CCOC(=O)N1CCc2c(sc3c2C(=O)NC(c2ccccc2)N3)C1 (centres undefined) | active: 3.26 µM | 
O=C(NCC(c1ccco1)N1CCN(c2ccccc2)CC1)C(=O)NC1CCCC1 (centres undefined) | inconclusive [inhibitor, single point] | 
O=C(COc1ccccc1)NNc1c2ccccc2nc2ccccc12 | active: 13 µM | 
CC(NC(=O)C(=O)Nc1c2c(nn1-c1ccccc1)CSC2)c1ccccc1 (centres undefined) | active: 20.6 µM | 
CCOCC(=O)Nc1cc(C(F)(F)F)ccc1Oc1cccc(Br)c1 | inconclusive [inhibitor, partial curve, poor fit] | 
O=S(=O)(c1ccc(F)cc1)n1ccc(-c2cnc(-c3ccccc3)s2)n1 | inactive | 
O=c1c(-c2cnn(-c3ccccc3)c2)coc2cc(O)ccc12 | inconclusive [inhibitor, partial curve, poor fit] | 
CCCN(Cc1nc2cc(Cl)ccc2c(=O)[nH]1)C(=O)c1ccc(S(=O)(=O)N2CCCC2)cc1 | active: 20.6 µM | 
COc1ccc(N=Nc2nc3cc(Br)c(Br)cc3n2C)c(OC)c1 | inconclusive [inhibitor, partial curve, poor fit] | 
COc1ccc2[nH]c3c(c2c1)CNCC3 | inconclusive [inhibitor, single point] | 
O=C(NC(Cc1ccccc1)C(=O)N1CCc2ccccc2C1)c1ccccc1 (centres undefined) | inconclusive [inhibitor, single point] | 
COc1ccccc1CNC(=O)CN(C)CC(=O)Nc1ccccc1Br | inconclusive [inhibitor, single point] | 
Cc1ccc(N2CC(NC(=O)c3ccc(Br)o3)CC2=O)cc1C (centres undefined) | inconclusive [inhibitor, single point] | 
Cc1ccc(CNC(=O)[C@H]2O[C@@H](n3ccc(N)nc3=O)[C@H](O)[C@@H]2O)o1 | inactive | 

SMILES | Potency | activity change, negative = growth inhibition
COc1ccc(CN2C[C@@H](CO)O[C@@H](n3cnc4c(NCc5ccc(F)cc5)ncnc43)C2)cc1 | inconclusive [inhibitor, single point] | 
Cc1occc1C(=O)Nc1cccc(C(F)(F)F)c1 | inconclusive [inhibitor, full curve, poor fit] | 
CCOn1c(=O)c(-c2ccc(OC)cc2)[n+]([O-])c2ccccc21 |  | inconclusive: -37.2% [inhibitor]
Cc1nn(CCC(=O)NCc2ccc(N(C)C)cc2)c(=O)c2nn(-c3ccccc3)c(C)c12 | inactive | 
CC1=C(C(=O)N(C(C)C)C(C)C)CC(CC(=O)NCc2ccco2)C(=O)N1CCC1=CCCCC1 (centres undefined) | inconclusive [inhibitor, single point] | 
Cc1cc(Cl)cc(Cl)c1OCCOCCN(C)C | active: 14.6 µM | 
CC(C)=CCC/C(C)=C/CNC(=O)C[C@H]1C[C@H](C(=O)N2CCOCC2)[C@@]2(C)c3[nH]c4ccc(Cl)cc4c3CCN2C1=O | inconclusive [inhibitor, single point] | 
S=C(NCc1ccco1)N1CCN(C(c2ccccc2)c2ccccc2)CC1 | inconclusive [inhibitor, single point] | 
Cc1ccc(CN2CC(C(=O)Nc3cccc(S(=O)(=O)N4CCCCC4)c3)CC2=O)cc1 (centres undefined) | inconclusive [inhibitor, single point] | 
CC(C)C[C@H](NC(=O)c1nc[nH]c1C(=O)NCC(=O)OCc1ccccc1)C(=O)OC(C)(C)C | inconclusive [inhibitor, single point] | 
CC(C)Oc1ccc(C(=O)Nc2ccc(N(C)C)cc2)cc1 | inconclusive [inhibitor, single point] | 
CC(C)(C)c1ccc(C(CC(=O)O)NC(=O)CCCc2ccccc2)cc1 (centres undefined) | inactive | 
CC(Cl)C(=O)NC(=O)NC12CC3CC(CC(C3)C1)C2 (centres undefined) | active: 20.6 µM | 
CCN1CCc2c(sc3c2c(NCc2ccco2)nc2nnnn23)C1 | inconclusive [inhibitor, single point] | 
COc1ccccc1-c1sc2ccccc2c1-c1ccc(Br)nc1 | inconclusive [inhibitor, single point] | 
N#C/C(=C/c1ccc(F)cc1)c1nnc(NC(=O)c2ccccc2)s1 | inactive | 
CC(Sc1ccc(Cl)cc1)C(=O)NCc1ccc2c(c1)OCO2 (centres undefined) | inactive | 
CC1(C)CC(=O)C(C(=O)Cc2ccccc2[N+](=O)[O-])C(=O)C1 | inactive | 
CN(C)c1ccc(/C=C2\c3ccccc3C(=O)N2c2ccccc2)cn1 | inactive | 
Cc1nnc(N2CCN(c3ccccc3F)CC2)c2c1nnn2Cc1ccccc1Cl | inconclusive [inhibitor, single point] | 
COc1cc2c(cc1OC)C1=C(C#N)CC/C(=N\S(=O)(=O)c3ccccc3)N1CC2 | inconclusive [inhibitor, single point] | 
COc1ccc(N2CCN(CC(O)COc3ccc(C(C)C)c(C)c3)CC2)cc1 (centres undefined) | inconclusive [inhibitor, single point] | 
O=C(CCS(=O)(=O)c1ccc2c(c1)NC(=O)CS2)NCCc1ccccc1 | inactive | 

SMILES | Potency | activity change, negative = growth inhibition
COCc1nnc(NC(=O)c2ccc(S(=O)(=O)N(C)c3ccccc3)cc2)o1 | inconclusive [inhibitor, single point] | 
COc1ccc(C=Nc2cccc3ncccc23)cc1 | inconclusive [inhibitor, single point] | 
Cc1csc(NC(=O)CSc2nc3ccccc3c(=O)[nH]2)n1 | inactive | 
O=C(C[C@H]1CC[C@@H]2[C@H](COC[C@H](O)CN2Cc2cccc(F)c2)O1)NCc1cccc(F)c1 | inconclusive [inhibitor, single point] | 
Cc1ccc(SCCC(=O)OC(C(=O)NC(N)=O)C(C)C)cc1 (centres undefined) | active: 16.4 µM | 
CCc1nnc(NC(=O)CSc2nccn2Cc2ccc(F)cc2)s1 | inactive | 
O=C(c1[nH]c(C(F)(F)F)nc1-c1ccccc1)N1CCN(c2ncccc2C(F)(F)F)CC1 | inconclusive [inhibitor, single point] | 
CN(Cc1c(C(=O)N/N=C/c2cccc(O)c2)nnn1-c1nonc1N)C1CCCCC1 | inactive | 
O=C(Nc1ccc(Cl)c(Cl)c1)C1CCN(C(=O)c2ccco2)CC1 | active: 14.6 µM | 
COc1ccc(NC(=O)c2cc(-c3cc(F)ccc3OC)n[nH]2)c(C)c1 | inconclusive [inhibitor, single point] | 
COc1ccc2nc3oc(C(=O)N(C)c4ccc(Cl)cc4)cc3cc2c1 | inconclusive [inhibitor, single point] | 
CC(c1ccc(O)cc1)(c1ccc(O)cc1)c1ccc(CCBr)cc1 | inconclusive [inhibitor, single point] | 
O=C(Nc1ccccc1)Nc1c(F)cccc1F | inactive | 
Cc1nc(N2CCN(Cc3ccccc3)CC2)nc2c1CCC2 | inconclusive [inhibitor, partial curve] | 
CCOC(=O)c1c(C)nc2sc3c(=O)n(-c4ccc(OC)cc4)cnc3c2c1-c1ccc(OC)cc1 | inconclusive [inhibitor, partial curve] | 
O=C(NCc1ccccc1Cl)c1cnc2ccccc2n1 | inconclusive [inhibitor, single point] | 
CC(C)(C)c1cc[n+](C2=C([O-])c3ccccc3C(=O)/C2=N\S(=O)(=O)c2ccccc2)cc1 | active: 23.1 µM | 
COc1ccc(-c2csc(NC(=O)CCCc3nc4ccccc4c(=O)[nH]3)n2)cc1OC | inconclusive [inhibitor, partial curve, poor fit] | 
CC(=O)c1cccc(NC(=O)N2C3CCC2CC(NC(=O)Nc2ccccc2)C3)c1 (centres undefined) | inactive | 
N#CCCn1c(=O)cnc2cnc(OCc3ccccc3)nc21 | inconclusive [inhibitor, single point] | 
CCCc1ccc(OCc2ccc(C(=O)N3CCN(c4ccccn4)CC3)o2)c(OC)c1 | active: 20.6 µM | 
Cc1ccc(N(CC(=O)N2CCN(c3ccc(F)cc3)CC2)S(=O)(=O)c2c(C)nn(C)c2C)cc1 | inconclusive [inhibitor, single point] | 
CC(C)(C)c1ccc(OCC(=O)N/N=C/c2ccsc2)cc1 | inconclusive [inhibitor, single point] | 
